Results: PMC2527638 (Toxicological Sciences, 2008)

Columns and labels:
[1] = system: T47D-ERβ cells; conditions: 0 ng/ml tetracycline, 96 h, resazurin; at 3nM PPT, 100nM DPN, 1nM E2
[2] = system: T47D-ERβ cells; test: Cytotoxicity of tetracycline in T47D-ERβ cells; format: cell-based, human; conditions: data not shown
[3] = system: ERβ expression in T47D-ERβ cells; test: ERβ expression-related EGFP fluorescence in cell lysate of T47D-ERβ cells; format: cell-based, human; conditions: 24 h exposure

Q: Which “Maximum induced proliferation in the absence of tetracycline (full expression of ERβ)” value [1] does the source give for CCCc1c(-c2ccc(O)cc2)nn(-c2ccc(O)cc2)c1-c1ccc(O)cc1 [PPT, 4,4′,4″-(4-propyl-[1H]pyrazole-1,3,5-triyl) Tris-phenol] here?
A: 153%

Q: What does the source list for CN(C)[C@@H]1C(O)=C(C(N)=O)C(=O)[C@@]2(O)C(O)=C3C(=O)c4c(O)cccc4[C@@](C)(O)[C@H]3C[C@@H]12 [tetracycline, Tetracycline]?
A: Concentration causing cytotoxicity [2]: above 2000 ng/ml; Concentration resulting in total fluorescence suppression [3]: above 150 ng/ml
